This is one part of the list. At the low end of the ranking the order means little.

This assay has as its target GST-SBP-SLBP (stem-loop binding protein) (UniProt Q14493). As to the kind of experiment: targeted RNA Bind-n-Seq.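 Note: DESeq read counts versus GST-SBP nonspecific binding control pulldown.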 The following applies: RBNS binding buffer: 25 mM Tris pH 7.5, 150 mM KCl, 3 mM MgCl2, 0.1% Tween, 0.5 mg/mL BSA, 1 mM DTT; 27 nM protein, 750 pM RNA pool; temperature not stated; high values mean tight binding.
“GGUCACGUCUCAAUCAACUCUUCUCCAGGAGUUUUCUCCUGUUAUCUCAACAGCUCGCAGUCAAG”: the binding signal (log2 fold change) was 0.161.

With “GGUCACGUCUCAAUCAACUCAUGUCCAGGAGUUUGCUCCUGCUUUUUCAACAGCUCGCAGUCAAG”, the binding signal (log2 fold change) is -0.141. Regarding “GGUCACGUCUCAAUCAACUCUUUCUCCAGGGAAAUCCCUGGUAAAUUCAACAGCUCGCAGUCAAG”, the binding signal (log2 fold change) is -0.1. “GGUCACGUCUCAAUCAACUCUUCCUCCAGGGAAAUCCCUGGCUAAUUCAACAGCUCGCAGUCAAG”: the binding signal (log2 fold change) came out at 0.11. As to “GGUCACGUCUCAAUCAACUCCUCAGAGGGGGGGAAAACCCCUUUGCCCUCCAUAUCAACAGCUCGCAGUCAAG”, the binding signal (log2 fold change) was -0.29. With “GGUCACGUCUCAAUCAACUCUUUUUCCAGGGAAAGCCCUGGCGUAUUCAACAGCUCGCAGUCAAG” the figure was -0.12. Take “GGUCACGUCUCAAUCAACUCUUUCUCCAGGGAAAACCCUGGUUAUUUCAACAGCUCGCAGUCAAG”: the binding signal (log2 fold change) was -0.142. As for “GGUCACGUCUCAAUCAACUCAUCUCCAGGAGUUUUCUCCUGUAUUUUCAACAGCUCGCAGUCAAG”, the binding signal (log2 fold change) is -0.177. Regarding “GGUCACGUCUCAAUCAACUCCCAAGAGGGGGGGAAAACCCCUUUGCCCUCACUAUCAACAGCUCGCAGUCAAG”, the binding signal (log2 fold change) is -0.164. To “GGUCACGUCUCAAUCAACUCCUUCGAGGGGGGGAAAACCCCUUUACCCUCACAUUCAACAGCUCGCAGUCAAG” belongs -0.083.

Regarding “GGUCACGUCUCAAUCAACUCUCAAGAGGGGGGGAAAACCCCUUUACCCUCCAUAUCAACAGCUCGCAGUCAAG”, the binding signal (log2 fold change) is 0.253. For “GGUCACGUCUCAAUCAACUCUUUUCCAGGAGUUUUCUCCUGUAAUUUCAACAGCUCGCAGUCAAG”, the binding signal (log2 fold change) was found to be 0.0451. To “GGUCACGUCUCAAUCAACUCUAGUCCAGGAGUUUUCUCCUGCUUAUUCAACAGCUCGCAGUCAAG” belongs 0.0928; to “GGUCACGUCUCAAUCAACUCAUUUUCCAGGGAAAGCCCUGGUAAUCUCAACAGCUCGCAGUCAAG”, -0.0129. As for “GGUCACGUCUCAAUCAACUCUAAAGAGGGGGGGAAAACCCCUUUACCCUCACCUUCAACAGCUCGCAGUCAAG”, the binding signal (log2 fold change) was -0.214. Take “GGUCACGUCUCAAUCAACUCAGUCUCCAGGGAAAGCCCUGGUUUAUUCAACAGCUCGCAGUCAAG”: the binding signal (log2 fold change) amounted to 0.0183.

As for “GGUCACGUCUCAAUCAACUCUAAAGAGGGGGGGAAAACCCCUUUGCCCUCGAAAUCAACAGCUCGCAGUCAAG”, the binding signal (log2 fold change) is 0.173.

On to “GGUCACGUCUCAAUCAACUCUCAAGAGGGGGGGAAAACCCCUUUACCCUCGUAUUCAACAGCUCGCAGUCAAG”, for which the binding signal (log2 fold change) was -0.0233. Take “GGUCACGUCUCAAUCAACUCUACUCCCAGGGAAAACCCUGGCUAACUCAACAGCUCGCAGUCAAG”: the binding signal (log2 fold change) was 0.0348. In the case of “GGUCACGUCUCAAUCAACUCAUCUUCCAGGGAAAGCCCUGGUAAUCUCAACAGCUCGCAGUCAAG”, the binding signal (log2 fold change) came out at 0.229.

For the origin of these results see paper PMC5892938.
